# Where “and” joins values, the source holds several entries; their conditions need not be identical. Equal values may be shown once. The whole screen tested about 280,000 compounds, of which about 100 (0.036%) were called active. Inconclusive means that the source gave no clear call. Such entries were picked first, then a sample of the others. Calls come from the whole dose curve; as a rule, active = well fitted inhibition curve with a large enough effect in the signal ratio, with a control signal flat (not every such curve was filed as active); inconclusive = small, poorly fitted or top-dose-only effect, or effect the other way, or a change in a side signal; inactive = no such curve, though single readings can be large or run the other way; the % refers to the signal ratio. Where the call is inconclusive, the potency comes from a doubtful curve fit. “Side channel” marks fits to a control or component signal instead of the main read-out.
# Target: Muscleblind-like protein 1 (Homo sapiens) (UniProt Q9NR56)
# Assay: qHTS Assay for Inhibitors of MBNL1-poly(CUG) RNA binding
# Details: TR-FRET MBNL1-His/biotin-(CUG)12 binding, 665/545 ratio; series mostly up to 57.5 µM
# Method in brief: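 TR-FRET between His-tagged MBNL1 and biotin-(CUG)12 RNA, detected with Tb anti-His antibody (0.055 ng/ul) and streptavidin-XL665 (5 nM), 60 min at room temperature. Compounds titrated 92 nM to 58 uM; 665/545 nm ratio normalized to buffer and complex controls.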
# Potency is the fitted concentration of half-maximal effect; tags give direction and shape of the fitted curve or compound fluorescence and quenching.
# UniProt Q9NR56, sequence (Q9NR56 whole entry, looked up): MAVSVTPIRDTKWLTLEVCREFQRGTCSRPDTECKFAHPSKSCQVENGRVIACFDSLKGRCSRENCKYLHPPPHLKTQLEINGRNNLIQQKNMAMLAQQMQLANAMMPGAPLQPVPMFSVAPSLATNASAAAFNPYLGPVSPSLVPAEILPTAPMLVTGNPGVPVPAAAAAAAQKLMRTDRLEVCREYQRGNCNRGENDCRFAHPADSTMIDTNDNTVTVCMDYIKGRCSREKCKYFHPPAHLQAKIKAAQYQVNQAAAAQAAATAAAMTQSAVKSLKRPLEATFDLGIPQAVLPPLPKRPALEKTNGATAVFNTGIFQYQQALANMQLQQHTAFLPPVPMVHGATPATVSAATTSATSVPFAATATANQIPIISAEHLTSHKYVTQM
row,Compound,Potency
1,CC(=O)N1CCN(C(=S)NC(=O)c2c(-c3ccccc3Cl)noc2C)CC1,inactive
2,O=C1NN(c2ccc(F)c(Cl)c2)C(=O)/C1=C\c1cccc(OC(=O)c2cccs2)c1,inactive
3,CCOC(=O)C1(Cc2ccc(Cl)cc2)CCN(C2CCC2)CC1,inactive
4,CCOC(=S)N/C(=N\S(=O)(=O)c1ccccc1)c1ccccc1,inactive
5,CCn1c(/C=C/c2ccc(F)cc2)nc2ccccc2c1=O,inactive
6,O=C1c2ccncc2C(=O)N1C1CCCCC1,"inconclusive: 12.6 µM [quencher, side channel, partial curve]"
7,CC(C)(C)N=C1C([N+](=O)[O-])=CC=C2C1=NC1(CCCCC1)N2O,"inconclusive: 11.2 µM [quencher, side channel, partial curve]"
8,COC(=O)N/N=C/c1sc(N2CCCCC2)nc1-c1cccs1,"inconclusive: 39.8 µM [quencher, single point]"
9,COC(=O)CN1C(=S)N(c2ccc(Cl)cc2)C(=O)C1CC(=O)Nc1ccc(Cl)cc1 (stereo unspecified),"inconclusive: 15.8 µM [quencher, side channel, single point]"
10,COCCn1c(SCC(=O)Nc2cccc(F)c2)nc2c(c1=O)SCC2,"inconclusive: 39.8 µM [quencher, side channel, partial curve]"
11,COc1cc(O)oc1C=Nc1ccc(Cl)cc1Cl,inactive
12,COc1cc(/C=N/N=C(\N)c2nonc2N)cc(OC)c1O,"inconclusive: 28.2 µM [quencher, side channel, single point]"
13,COc1cccc(CN2CCN(C3CCN(c4ccccc4C)CC3)CC2CCO)c1 (stereo unspecified),inactive
14,COc1ccc(Cc2n[nH]c(=S)n2N)cc1OC,"inconclusive: 22.4 µM [quencher, side channel, single point]"
15,Cc1ccc(/C=C(\C#N)C(=O)Nc2c(C)cccc2C)s1,inactive
16,Cc1ccc(S(=O)(=O)c2c(N)n(NC(=O)C3CC3)c3nc4ccccc4nc23)cc1,"inconclusive: 39.8 µM [quencher, single point]"
17,Cc1nc([N+](=O)[O-])c(Br)n1CC(=O)c1ccc2ccccc2c1,"inconclusive: 39.8 µM [quencher, single point]"
18,Cc1ccnc(SCC(=O)c2cccc([N+](=O)[O-])c2)n1,"inconclusive: 14.1 µM [quencher, partial curve]"
19,O=C(N/N=C/c1ccccc1[N+](=O)[O-])c1cccs1,"inconclusive: 10 µM [quencher, partial curve]"
20,C=CC[n+]1cccc(-c2cc3ccc(C)cc3[nH]2)c1,"inconclusive: 25.1 µM [quencher, side channel, partial curve]"
21,COc1ccc(-c2ccc(C#N)c(SCC(=O)OCc3ccccc3)n2)cc1OC,"inconclusive: 39.8 µM [fluorescent, single point]"

row,Compound,Potency
1,COc1ccc(CCNc2cc(C)nc3c(-c4ccc(Cl)cc4)cnn23)cc1OC,inactive
2,O=C1C=C(Nc2ccccc2O)c2ccccc2C1=O,"inconclusive: 12.6 µM [quencher, side channel, partial curve]"
3,Cc1ccc2nc3c(cc(C(=O)NCCc4ccccc4)c(=N)n3CCCN3CCOCC3)c(=O)n2c1,"inconclusive: 14.1 µM [quencher, side channel, partial curve]"
4,CCc1cc2c(=O)c(-c3nc4ccccc4n3C)c(COCC(=O)O)oc2cc1OC(=O)C(C)(C)C,inactive
5,CN(C)c1ccc(/C=C(/NC(=O)c2ccccc2)C(=O)NCCN2CCOCC2)cc1,"inconclusive: 12.6 µM [quencher, side channel, partial curve]"
6,Cn1c(SCC(=O)Nc2cc([N+](=O)[O-])ccc2F)nnc1C(F)(F)F,"inconclusive: 7.08 µM [quencher, side channel, full curve, poor fit]"
7,O=c1c(-c2ccccc2)c(O)nc2ccccn12,"inconclusive: 14.1 µM [quencher, side channel, partial curve]"
8,Cc1cccc(C)c1NC(=O)Cn1cc(C=O)c2ccccc21,inactive
9,COc1ccc(-c2oc3c(OC)c(OC)c(OC)c(O)c3c(=O)c2OC)cc1OC,"inconclusive: 20 µM [quencher, side channel, partial curve]"
10,CC(=O)C1=C(O)C(=O)N(c2nnn(C)n2)C1c1cccs1 (stereo unspecified),"inconclusive: 20 µM [quencher, side channel, single point]"
11,CCC(c1nnnn1CC1CCCO1)N(CCN1CCOCC1)Cc1cc2cc(C)ccc2[nH]c1=O (stereo unspecified),"inconclusive: 39.8 µM [quencher, side channel, single point]"
12,Cc1ncc([N+](=O)[O-])n1CCO,"inconclusive: 25.1 µM [quencher, side channel, single point] and inconclusive: 79.4 µM [inhibitor, single point]"
13,CCN(CC)c1ccc(/C=N/N2CCOCC2)cc1,"inconclusive: 0.631 µM [quencher, side channel, single point]"
14,O=C(CSc1ccc(C(F)(F)F)cc1[N+](=O)[O-])N1CCOCC1,"inconclusive: 25.1 µM [quencher, side channel, partial curve]"
15,CN(C)C(=O)COc1ccc2cc(-c3ccccc3)c(=O)oc2c1,"inconclusive: 2.24 µM [quencher, side channel, full curve]"
16,COc1cc(/C=N/NC(=O)COc2ccc([N+](=O)[O-])cc2)ccc1OCC(=O)N1CCOCC1,"inconclusive: 15.8 µM [quencher, side channel, partial curve]"
17,Nc1cc(Cl)nc(N/N=C/c2ccc([N+](=O)[O-])cc2)n1,"inconclusive: 3.55 µM [quencher, partial curve]"
18,CCOCC(=O)Nc1ccc(-c2cn3cccnc3n2)cc1,"inconclusive: 31.6 µM [quencher, single point]"
19,Cn1c(Sc2ccc(C(F)(F)F)cc2[N+](=O)[O-])nnc1-c1ccccc1,"inconclusive: 28.2 µM [quencher, side channel, partial curve]"
20,CC1(C)OC(c2ccccc2)=C/C(=C/C=N/NC(=O)c2ccncc2)O1,"inconclusive: 35.5 µM [quencher, side channel, partial curve]"
21,CC(=O)Oc1ccc(/C=N/NC(=O)c2ccc(N(C)S(=O)(=O)c3ccccc3)cc2)cc1,"inconclusive: 28.2 µM [quencher, single point]"

row,Compound,Potency
1,CSc1nc(Oc2ccc3ccccc3c2)c2ccccc2n1,"inconclusive: 5.01 µM [quencher, side channel, single point]"
2,COc1ccc(/C=C(/NC(=O)c2ccccc2)C(=O)N/N=C/c2ccc3c(c2)OCO3)cc1OC,"inconclusive: 17.8 µM [quencher, side channel, partial curve]"
3,N/C(Cc1ccc([N+](=O)[O-])cc1)=N\OC(=O)c1ccco1,"inconclusive: 8.91 µM [quencher, side channel, partial curve]"
4,O=C(O)c1cccc(NC(=S)NC(=O)c2ccc3ccccc3c2)c1,"inconclusive: 39.8 µM [quencher, side channel, single point]"
5,CCCc1nc(-c2cc3ccc(C)cc3[nH]c2=O)no1,"inconclusive: 20 µM [quencher, side channel, single point]"
6,C=CCSc1nnc(-c2cc(Br)ccc2N)c(=O)[nH]1,"inconclusive: 7.94 µM [quencher, side channel, partial curve]"
7,O=C(N/N=C\c1ccc(S(=O)(=O)O)o1)c1ccc2c(c1)OCO2,"inconclusive: 25.1 µM [quencher, side channel, partial curve]"
8,C=CCc1cccc2cc(C(=O)Nc3ccc(CC(=O)O)cc3)c(=O)oc12,"inconclusive: 12.6 µM [quencher, side channel, partial curve]"
9,CC(C)Oc1ccc(C(=O)Nc2ncn[nH]2)cc1,inactive
10,CCC(=O)OCC(=O)Nc1cc(C)c(C)cc1[N+](=O)[O-],"inconclusive: 20 µM [quencher, partial curve]"
11,COc1ccccc1-n1c(SCC(=O)Nc2ccc(F)cc2)nc2c(c1=O)SCC2,"inconclusive: 0.141 µM [quencher, side channel, full curve, poor fit]"
12,O=C(CCCN1C(=O)c2cccc3cccc(c23)C1=O)Nc1ccon1,"inconclusive: 25.1 µM [quencher, side channel, partial curve]"
13,O=C(Nc1ccc2c(c1)OCO2)C1CCN(C(=O)c2ccc([N+](=O)[O-])cc2)CC1,"inconclusive: 12.6 µM [quencher, side channel, partial curve]"
14,CS(=O)(=O)c1ccc2nc(NC(=O)c3ccc(NS(=O)(=O)c4ccc(F)c(F)c4)cc3)sc2c1,inactive
15,COc1ccc(-c2cc(C(F)F)nc(-n3nc(C)cc3C)n2)cc1,inactive
16,CCOC(=O)CC1C(=O)NCCN1C(=O)c1cc2c(=O)n3cccc(C)c3nc2s1 (stereo unspecified),"inconclusive: 12.6 µM [quencher, side channel, partial curve]"
17,CCOC(=O)c1cnn(-c2ccc([N+](=O)[O-])cc2)c1N,"inconclusive: 7.08 µM [quencher, side channel, partial curve]"
18,O=C(Cc1cccs1)N/N=C/C=C/c1ccco1,"inconclusive: 28.2 µM [quencher, side channel, partial curve]"
19,CCOc1ccc(-c2nnc(SCC(=O)NC(C)(C)C)nc2-c2ccc(OCC)c(OC)c2)cc1OC,"inconclusive: 14.1 µM [quencher, side channel, partial curve]"

# From PubChem BioAssay AID2675 (National Center for Advancing Translational Sciences (NCATS), 2010)
